# The other results are listed elsewhere or left out. These are enrichments in a pooled selection; single values are uncertain.
# Tested on: SARS-CoV-2 3CLpro (nsp5)
# Assay: substrate phage enrichment score (protease-eluted vs HEPES control, +1 offset) (ratio); higher = better cleaved substrate
# Details: selection round: 4; protease elution time: 15 min
# Experimental: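 Random heptapeptide substrate phage display (M13 pIII fusion, heptapeptide between an N-terminal biotinylated AviTag GLNDIFEAQKIEWHE and pIII; phages immobilised on streptavidin) eluted by cleavage with 50 nM protease in 20 mM HEPES at 37 °C. Selected phages were NGS sequenced, and the enrichment score is (reads in protease sample + 1)/(reads in HEPES blank-selection control + 1).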
row,Substance,substrate phage enrichment score
1,MNFQGGS,4.6
2,TCNWMLK,0.227
3,YPYFQGG,3.33
4,EVTCTPW,1
5,APEASPN,0.4
6,ETQSMFR,2.62
7,CDNETMT,> 39
8,SGQVRQC,0.829
9,WRASYNE,2.3
10,PGAAHHH,1.06
11,RAYDQLN,1.08
12,NVDDLPR,0.381
13,TRCTGHL,> 40
14,GYHASCQ,0.545
15,CKLQCSN,> 51
16,QVPVSMH,38.6
17,NHHVQGC,> 26
18,AGGCVRD,1.82
19,SSHRKNG,4.4
20,TARPMTG,0.524
21,QLDCLRP,2.71
22,TQMCPRP,0.778
23,AWPSVVP,> 100
24,QIQCATQ,6.91

row,Substance,substrate phage enrichment score
1,RPETKQG,> 28
2,CSLMSMF,> 39
3,DGAAHHH,0.316
4,TTSPLWP,1.18
5,PTDVGAR,> 30
6,SIEHFQG,3.58
7,WPPVQLQ,> 181
8,LLPHIII,0.857
9,NSRAVTH,12.5
10,AYKTSHM,0.087
11,VPDKSSR,1.47
12,ESASILQ,> 234
13,RVQCPRC,> 30
14,ASQKRPR,> 25
15,GGAAHHH,0.722
16,WNRRDEP,3
17,RDIRHSR,> 49
18,HTLKEES,0.0952
19,EMYFQGG,0.923
20,PQVIEQH,1.77
21,NATQPTR,3.43
22,LISDNLP,> 39
23,QPGYGSC,> 41
24,CSPRSRP,> 78

row,Substance,substrate phage enrichment score
1,ISAPEAH,1.83
2,SPSRTPC,14
3,ACKREHW,0.706
4,TEHSQNR,> 25
5,TCRSLKE,> 35
6,VRVIRMG,2.56
7,SGNSRLN,> 47
8,AHRCRLQ,10.5
9,TPTAASQ,> 45
10,HKAASSC,0.114
11,APSVTGS,0.846
12,LVTPWSH,1.16
13,ISGAHSQ,> 33
14,AECCGMP,23
15,FDQKKAP,1.2
16,VVQGTAT,0.179
17,ANTLLQS,> 21
18,GRSKAER,> 24
19,HGTNVFR,> 74
20,HCSDCAG,1.54
21,SQGGSAA,0.761
22,DNRSLLQ,> 24
23,QNLMCHY,1.53
24,LRCGKDW,2.33

row,Substance,substrate phage enrichment score
1,ARGVHLQ,> 126
2,SAPRPDA,1.23
3,SNRRSPT,3.86
4,PTCFCRS,> 23
5,ETLNCPY,0.923
6,ACGVRPT,1.7
7,CMLGQFG,> 25
8,VTRGNAS,10.5
9,DCPAAHH,> 28
10,VVSGGGF,2
11,AGTPRAK,> 32
12,RTLSPLT,6
13,VANTYGC,> 240
14,ASNPASL,6.6
15,TARSRQC,> 21
16,SDRVWLQ,> 63
17,WPSAAAH,0.107
18,APDRASC,> 56
19,SESCGSS,> 29
20,RHCICLP,> 26
21,GLTTTPW,2
22,RCRHLEA,1.86
23,IAAAHHH,0.606
24,ANTQIGG,> 27

row,Substance,substrate phage enrichment score
1,ADSLRYW,0.5
2,DLLRESA,1.2
3,TDSTSAN,> 28
4,ADAHHHH,0.345
5,GWYVKPP,2.14
6,RLPTVFE,2.92
7,ARCGAAA,> 47
8,ANERWSD,2
9,SKKSSHE,0.8
10,NAVLHGQ,> 23
11,DALRALR,> 22
12,LPNFQGG,9.83
13,CEHEMRT,> 25
14,AKLTPEH,0.4
15,AREEFDW,0.688
16,TNLSNSL,13.8
17,CSKETRG,15
18,SIEAKEF,0.0833
19,GAKVQLQ,> 261
20,ALRCSTW,> 30
21,GCADTFD,0.643
22,GQAAHHH,0.528
23,RAKCTYH,> 34
24,KGGSAAA,1.02

row,Substance,substrate phage enrichment score
1,IKHELSC,3.59
2,CVPTAKG,1.92
3,SKLQGAN,13.8
4,YLDPSLP,> 65
5,SHWRPFR,> 22
6,ERNCRLQ,> 59
7,AKSYSRC,8.8
8,PSSRAQS,> 25
9,KWEKNKP,1.82
10,DSMNSED,> 29
11,QGRSSTT,1.12
12,RWPITNS,11
13,RKEAIAP,> 32
14,SGHVSGT,0.714
15,SKLPVSS,> 40
16,TCGAGAI,0.467
17,ACYRING,> 30
18,PQLKSLD,4.97
19,ERIDKRD,> 21
20,TRVTEPT,0.222
21,HGNSAGS,1.56
22,HKRCQFW,3
23,HFSEFGR,> 98
24,HCVTQRR,> 21

row,Substance,substrate phage enrichment score
1,PKDCSVR,> 27
2,VSRDPAP,> 65
3,DRAGTDH,0.719
4,EFRKPSR,14
5,RHPGDLV,4.05
6,ATQRSRD,7.33
7,VSFQGGS,2
8,RETTFPW,0.923
9,LPGVGMW,2
10,RQCEPGT,2.13
11,GPDCNVR,11.5
12,PGSQMHC,1.16
13,ESRGMPN,2.4
14,QGTSSLQ,0.278
15,MRRVPPG,> 23
16,SNRTNAH,> 25
17,LYSEDMS,0.185
18,KPLLQSE,> 24
19,PGQTCRR,0.902
20,LGKKPDH,1.15
21,AARLQCS,80.5
22,SRTRLRP,> 23
23,RHLTGGQ,1.42
24,HHHGELR,> 191

row,Substance,substrate phage enrichment score
1,FKCPASS,> 34
2,TTDNDLR,> 24
3,TYLQGGS,85.5
4,RYMNVPE,2.43
5,LLPKAPE,0.929
6,AVQSGEY,0.786
7,SASISSE,> 29
8,EKATSFG,0.263
9,AAAQQQH,1.89
10,VMFQADF,> 145
11,DALPEPS,0.4
12,TRGLSAP,> 34
13,REESSAH,> 27
14,PQVEQPY,14.9
15,HTKPAAR,2.33
16,NKPDLIW,25.5
17,VLSPQTK,> 61
18,KSNSPYD,> 24
19,RKTGDAT,> 24
20,LVAPKTA,1.27
21,TDHDRQY,1.82
22,ARPGDYV,3.4
23,THSHRQG,11
24,AGHVNLQ,> 239

row,Substance,substrate phage enrichment score
1,MTSDLVG,> 22
2,AIRFEGD,3.73
3,ARERVPG,> 81
4,QPYPHLQ,> 28
5,RETGVLV,1.8
6,ALHVCTG,3.4
7,AAAHNHH,1.23
8,NYSRCPR,> 27
9,ARCVLQY,> 40
10,SISGAQN,> 21
11,HQPIHAP,> 38
12,TGGSAAA,0.333
13,RSHSTVQ,> 52
14,TAQRTGR,0.6
15,SSTDGLR,> 23
16,SSLMTEQ,> 60
17,VIGPAST,1.45
18,SPTEGKV,0.5
19,SPQWNPY,1.2
20,GRAAHHH,0.941
21,SDMTHPS,> 29
22,VASSIVQ,4.5
23,KRNANEQ,> 26
24,DKVNESR,2.3

row,Substance,substrate phage enrichment score
1,KPSSLQS,159
2,SSESNGS,0.265
3,EQVGRNR,> 22
4,ASKGQAT,> 30
5,GPTIYED,2.1
6,SFEASHR,8
7,GIYDMRD,1
8,RDAAHHH,0.28
9,CHCEATT,> 47
10,LKSDTRT,> 23
11,SSRQGHA,> 30
12,WCTVSDR,> 74
13,QKQVYSS,2.67
14,HRHIGEQ,10.2
15,HMSNHHH,15
16,DDKSLLH,12.7
17,CNYSKGG,> 22
18,ASVFEDG,0.133

# Source: the supplement of paper PMC10185492
